# Measured values taken from PubChem BioAssay AID588342 (National Center for Advancing Translational Sciences (NCATS), 2011).
# The campaign covered roughly 360,000 compounds. About 25,000 (6.9%) were called active. The shares of active, inactive and inconclusive entries below differ from those in the screen. Calls follow the shape of the dose curve; as a rule, active = well fitted inhibition curve with a large enough effect; inconclusive = small, poorly fitted or top-dose-only effect; inactive = flat fitted curve, though single readings scatter. Potencies beside an inconclusive call are fits to weak or partial responses and may not hold up.
# Target: Luciferin 4-monooxygenase (Photinus pyralis) (UniProt P08659)
# UniProt P08659, sequence (P08659 whole entry, looked up): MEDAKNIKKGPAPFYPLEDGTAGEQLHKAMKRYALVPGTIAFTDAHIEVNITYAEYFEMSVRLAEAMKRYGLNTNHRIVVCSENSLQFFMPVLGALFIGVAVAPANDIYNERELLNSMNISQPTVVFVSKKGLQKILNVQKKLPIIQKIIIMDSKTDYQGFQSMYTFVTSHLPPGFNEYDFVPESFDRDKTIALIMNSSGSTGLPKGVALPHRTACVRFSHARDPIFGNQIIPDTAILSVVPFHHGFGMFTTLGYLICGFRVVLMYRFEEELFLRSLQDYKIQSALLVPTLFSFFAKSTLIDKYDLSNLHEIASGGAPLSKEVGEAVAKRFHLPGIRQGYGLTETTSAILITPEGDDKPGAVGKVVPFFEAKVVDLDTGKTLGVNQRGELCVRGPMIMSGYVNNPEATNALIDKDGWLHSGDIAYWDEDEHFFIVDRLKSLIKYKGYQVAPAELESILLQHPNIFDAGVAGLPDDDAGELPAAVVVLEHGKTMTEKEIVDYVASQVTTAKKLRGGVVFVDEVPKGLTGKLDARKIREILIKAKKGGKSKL
# Test: qHTS profiling assay for firefly luciferase inhibitor/activator using purifed enzyme and Km concentrations of substrates (counterscreen for miR-21 project); also: nearly all actives have a fitted effect of over 55% in size
# Settings: purified FLuc, luminescence inhibition; series mostly up to 57.5 µM
# Method in brief: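 Biochemical qHTS of compounds, final roughly 60 µM downward over six points, against 10 nM purified firefly luciferase using Km concentrations of substrates (10 uM D-luciferin, 10 uM ATP) in Tris acetate pH 7.5 buffer; luminescence output.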
# Potency is read from the fitted curve at half-maximal effect; tags tell the direction and shape of the fitted curve.
row,Structure (SMILES),Potency
1,CC(C)c1ccc(OCc2cc(=O)n3c(-c4ccccc4)csc3n2)cc1,inactive
2,COc1ccc(C(=O)NCC(=O)OCC(=O)N2CCCc3ccccc32)cc1,"inconclusive: 30.1 µM [inhibitor, single point]"
3,Nc1nc(COC(=O)C2CCN(C(=O)c3ccc(Cl)cc3)CC2)nc(Nc2ccccc2)n1,"inconclusive: 37.9 µM [inhibitor, partial curve, poor fit]"
4,CCOC(=O)Oc1ccc2oc(C)c(C(=O)OCCOC)c2c1,"inconclusive: 30.1 µM [inhibitor, partial curve, poor fit]"
5,Cc1ccsc1/C=C1\SC(N)=NC1=O,"inconclusive: 15.1 µM [inhibitor, partial curve, poor fit]"
6,COc1ccc(C(=O)NNC(=S)NC(=O)c2cccs2)cc1,inactive
7,CC(=O)Nc1ccc(SCC(=O)Nc2sccc2C#N)cc1,"inconclusive: 37.9 µM [inhibitor, single point]"
8,CCOc1cc(/C=N/NC(=O)CCn2nnc3ccccc32)ccc1O,inactive
9,COc1ccc(-c2nn(-c3ccccc3)cc2/C=N/N2C(=O)CSC2=S)cc1,"inconclusive: 37.9 µM [inhibitor, single point]"
10,O=C(COc1ccc2ccccc2c1)Nc1cccc2cccnc12,"inconclusive: 23.9 µM [inhibitor, partial curve, poor fit]"
11,COc1ccc(/C=N/Nc2cc(C)nc3ccc(Br)cc23)cc1,active: 21.3 µM
12,O=C1c2ccccc2-c2onc3c(NCCO)cc(NC4CCCCC4)c1c23,"inconclusive: 8.49 µM [inhibitor, partial curve, poor fit]"
13,Cc1c(C(=O)Nc2ccc(F)cc2F)sc2nc3n(c(=O)c12)N=C(c1ccccc1)CS3,inactive
14,C/C(=N\Nc1ccc(Cl)c(C(=O)O)c1)c1cccc2ccccc12,"inconclusive: 26.9 µM [inhibitor, single point]"
15,COc1ccc(N2CCN(c3csc4ccccc4c3=O)CC2)cc1,"inconclusive: 23.9 µM [inhibitor, partial curve, poor fit]"
16,COC(=O)Cn1c(=NC(=O)c2ccc(Cl)s2)sc2cc(C)ccc21,active: 0.135 µM
17,CC(C)COc1ccc(C(=O)Nc2ccc([N+](=O)[O-])cc2)cc1,inactive
18,CC(=O)SC1CC(=O)N(c2ccc(C(C)(C)C)cc2)C1=O (centres undefined),"inconclusive: 16.9 µM [inhibitor, partial curve, poor fit]"
19,Cc1ccc(/C=N/N2C(=O)c3ccccc3NC2c2ccc(C)cc2)cc1 (centres undefined),"inconclusive: 12 µM [inhibitor, partial curve]"
20,Cc1occc1C(=O)n1nnc2ccccc21,"inconclusive: 26.9 µM [inhibitor, single point]"
21,Cc1cc(NC(=O)c2ccc(NC(=O)C(C)C)cc2)no1,"inconclusive: 37.9 µM [inhibitor, partial curve, poor fit]"
22,COc1cc(/C=C2/SC(=S)N(CC(=O)O)C2=O)ccc1OC(=O)c1ccco1,active: 7.57 µM
23,CCN1CCN(c2cc(C)c3cc(NC(=O)CCC(=O)N4CCN(c5ccccc5OC)CC4)ccc3n2)CC1,active: 15.1 µM
24,COc1cc(/C=N\NS(=O)(=O)c2ccccc2)cc(OC)c1OC,inactive
25,COc1cc(CC(=O)OCC(=O)c2c[nH]c3ccccc23)cc(OC)c1OC,"inconclusive: 21.3 µM [inhibitor, partial curve]"

row,Structure (SMILES),Potency
1,CC(C)Oc1ccc(NC(=O)Oc2ccccc2)cc1,"inconclusive: 26.9 µM [inhibitor, single point]"
2,COC(=O)c1sccc1NC(=S)Nc1ccc(F)cc1F,inactive
3,CCCCN(C(=O)c1cc2c(s1)CCC2)c1c(N)n(CCCC)c(=O)[nH]c1=O,inactive
4,O=C(/C=C/c1ccccc1)C1=C(O)C(=O)N(CCO)C1c1ccccc1[N+](=O)[O-] (centres undefined),"inconclusive: 15.1 µM [inhibitor, partial curve, poor fit]"
5,Cn1ncc2c(Sc3ccc(Cl)cc3)ncnc21,"inconclusive: 23.9 µM [inhibitor, partial curve, poor fit]"
6,CCC(CC)C(=O)Nc1ccc(Nc2ccccc2)cc1,"inconclusive: 30.1 µM [inhibitor, partial curve, poor fit]"
7,c1ccc(-c2cn3cccnc3n2)cc1,"inconclusive: 37.9 µM [inhibitor, partial curve, poor fit]"
8,COc1ccc(C/C(=N\O)c2ccc(OC)cc2)cc1,"inconclusive: 26.9 µM [inhibitor, single point]"
9,COC(=O)c1c(NC(=O)COC(=O)[C@@H](NS(=O)(=O)c2ccc(C)cc2)C(C)C)sc2c1CCC2,inactive
10,CN(C)S(=O)(=O)c1ccc2nc(NC(=O)c3cccs3)sc2c1,active: 1.2 µM
11,Cc1cc(-c2nnc(SCC(=O)Nc3ccc(F)cc3F)n2N)n[nH]1,inactive
12,COc1cccc(OC(=O)CSc2nnc(-c3ccc4c(c3)OCO4)o2)c1,inactive
13,O=C(COC(=O)c1cccc(C(=O)OCC(=O)c2ccc(Br)cc2)n1)c1ccc(Br)cc1,"inconclusive: 2.69 µM [inhibitor, partial curve]"
14,Cc1cccc(-c2nc3c4ccccc4nc(NCc4ccc(F)cc4)n3n2)c1,"inconclusive: 15.1 µM [inhibitor, partial curve]"
15,CCc1ccc2c(c1)NC(c1ccc(OC)cc1)=NC(c1ccncc1)=N2,inactive
16,COc1cc(SC)ccc1C(=O)Nc1ccc2c(c1)OCO2,active: 1.35 µM
17,COc1cc(/C=C/c2nc(C#N)c(N3CCC(C)CC3)o2)cc(OC)c1OC,"inconclusive: 10.7 µM [inhibitor, partial curve]"
18,CCOc1ccccc1NC(=O)C(C)N(c1ccccc1)S(C)(=O)=O (centres undefined),inactive
19,CC(C)(C)OC(=O)N1CCN(C(=O)Nc2ccc3c(c2)OCCO3)CC1,"inconclusive: 33.8 µM [inhibitor, single point]"
20,COc1ccc(S(=O)(=O)c2cnc(SCC(=O)Nc3cc(F)ccc3C)[nH]c2=O)cc1Cl,active: 9.53 µM
21,CC1CCN(C2=C(NS(=O)(=O)c3ccccc3)C(=O)c3ccccc3C2=O)CC1,"inconclusive: 23.9 µM [inhibitor, partial curve, poor fit]"
22,CN1CCN(C(=S)c2ccc(-c3cccc([N+](=O)[O-])c3)o2)CC1,active: 6.75 µM
23,O=C(N/N=C/c1sc(=O)n(-c2ccccc2)c1Cl)c1ccccc1,active: 6.01 µM
24,COc1ccc(-c2ccc(OC)cc2)cc1,"inconclusive: 2.39 µM [inhibitor, partial curve, poor fit]"
25,Cc1ccc(NC(=O)CN2C(=O)S/C(=C\c3ccc(-c4cccc(C(=O)O)c4C)o3)C2=O)cc1,"inconclusive: 23.9 µM [inhibitor, partial curve]"

row,Structure (SMILES),Potency
1,CCc1nc(CNC(=O)C2CCC(=O)N(Cc3cccc(OC)c3)C2)no1 (centres undefined),inactive
2,O=c1c(Cl)c(N2CCOCC2)cnn1-c1nc2ccccc2[nH]1,active: 10.7 µM
3,COCCNc1nc2c(S(=O)(=O)c3cc(C)ccc3C)nnn2c2ccccc12,inactive
4,Nc1cc(=O)[nH]c(=O)n1CCc1ccccc1,inactive
5,CCC(C)C1=CC(=Nc2c(C)n(C)n(-c3ccccc3)c2=O)C=C(C(C)CC)C1=O (centres undefined),"inconclusive: 16.9 µM [inhibitor, partial curve, poor fit]"
6,Nc1[nH]nc2nc3ccccc3cc12,inactive
7,CCOc1ccc(N2CC(C(=O)NCc3nnnn3-c3ccc(C)c(C)c3)CC2=O)cc1 (centres undefined),inactive
8,COC(=O)CN1C(=O)CSc2ccc(S(=O)(=O)Nc3cccc(Cl)c3C)cc21,"inconclusive: 21.3 µM [inhibitor, partial curve, poor fit]"
9,CCOC(=O)CN(Cc1sccc1C)C(=O)Nc1cccc(OC)c1,"inconclusive: 13.5 µM [inhibitor, partial curve]"
10,COc1ccc2c(c1)CCc1c(C(=O)N3CCc4ccccc4C3)noc1-2,"inconclusive: 37.9 µM [inhibitor, single point]"
11,COC(=O)c1sccc1NC(=O)COc1ccc(Cl)cc1,inactive
12,Cc1cs/c(=N/C(=S)Nc2ccccc2)n1C,active: 4.78 µM
13,O=C(COc1ccc(Cl)cc1Cl)NC(=S)Nc1ccc(CN2CCOCC2)cc1,"inconclusive: 37.9 µM [inhibitor, single point]"
14,CN1CCN(CCCCOc2ccc(Br)cc2)CC1,inactive
15,O=C(NCc1cccnc1)Nc1cccc(NC(=O)NCc2cccnc2)c1F,"inconclusive: 26.9 µM [inhibitor, single point]"
16,CC1CCc2sc(C(=O)NCc3ccc(F)cc3)cc2C1 (centres undefined),"inconclusive: 16.9 µM [inhibitor, partial curve]"
17,Cc1ccc(CNC(=O)Cc2cccs2)cc1,"inconclusive: 30.1 µM [inhibitor, single point]"
18,CCc1ccc(NC(=O)C(=O)NCC(c2cccnc2)N2CCOCC2)cc1 (centres undefined),inactive
19,COc1cccc2c1NC(C(=O)O)C1CC=CC21 (centres undefined),"inconclusive: 37.9 µM [inhibitor, partial curve, poor fit]"
20,O=C(O)c1cnn(-c2nc(-c3cccc(F)c3)cs2)c1C(F)(F)F,"inconclusive: 37.9 µM [inhibitor, single point]"
21,Cc1cccc(C(=O)Nc2cccc(OCc3cc(=O)n4c(C)csc4n3)c2)c1,inactive
22,Cc1ccc(-c2csc3ncnc(N4CCN(S(=O)(=O)c5cccs5)CC4)c23)cc1,inactive
23,CCc1ccc(NC(=O)c2cc3c(=O)n(Cc4cccnc4)ccc3nc2C)cc1,inactive
24,COc1ccc(NC(=O)Cc2csc(COc3cccc(C)c3)n2)c(OC)c1,"inconclusive: 21.3 µM [inhibitor, single point]"
